Among all 43,000 compounds or so, about 200 (0.47%) were called active. Inconclusive results (about 12%) are left out. Calls follow the shape of the dose curve; as a rule, active = well fitted cell-killing curve with a large enough effect; inconclusive = small, poorly fitted or top-dose-only effect, or effect the other way; inactive = flat fitted curve, though single readings scatter. The list shows a part of the results.
% is scaled to controls: 0 for no effect and ±100 for the full control effect.

A short description of this test: Cell viability qHTS assay in S16 Pmp22-F2sN cells. Also: nearly all actives have a fitted effect of over 65% in size. The settings on record: S16 Pmp22-F2sN Schwann cells viability, CellTiter-Glo, 24 h; series mostly up to 57.5 µM; activity change, negative = cytotoxicity: at the top concentration. Summed up: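 Viability was measured by CellTiter-Glo luminescence (15 min, room temperature). This followed 24 h at 37 °C of compound exposure (23 nL pin transfer) in S16 Pmp22-F2sN Schwann cells, 500-1,000 per well.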
In general terms: In qHTS, concentration-response curves come from the screen itself.
On to `CCOc1ccc(S(=O)(=O)N(CC(=O)Nc2ccc3c(c2)OCO3)c2ccc(C)cc2)cc1`, for which the “activity change, negative = cytotoxicity” value was inactive: -16.3%.

For the compound `CCn1cc(S(=O)(=O)c2ccc(Cl)cc2)c(=O)c2cc(F)c(N3CCOCC3)cc21`, the “activity change, negative = cytotoxicity” value was inactive: -20.7%.

As for `CCN(CC)S(=O)(=O)c1ccc(N2CCCCS2(=O)=O)cc1`, the “activity change, negative = cytotoxicity” value was inactive: 2.11%.

Turning to `Cc1ccc(CNC(=O)CN2C(=O)CCc3cc(S(=O)(=O)N4CCCCC4)ccc32)cc1`, the “activity change, negative = cytotoxicity” value is inactive: 22.9%.

For the compound `CC(CNC(=O)C1CCN(C(=O)c2cc3sccc3n2C)CC1)c1ccccc1` (stereo not drawn), the “activity change, negative = cytotoxicity” value is inactive: -3.92%.

In the case of `COc1ccccc1NC(=O)Cn1ccn(-c2cc(C)cc(C)c2)c(=O)c1=O`, the “activity change, negative = cytotoxicity” value is inactive: 4.27%.

On to `Cn1nc(C(=O)NCc2ccccc2)c2c1-c1ccccc1S(=O)(=O)C2`, for which the “activity change, negative = cytotoxicity” value is inactive: -6.44%.

Turning to `CCOc1cccc(NC(=O)C2CC(=O)N(C)C(=Nc3ccc(OC)cc3)S2)c1` (stereo not drawn), the “activity change, negative = cytotoxicity” value is inactive: 8.52%.

For the compound `CCOc1ccccc1Oc1nc(C)nc2c1oc1ccccc12`, the “activity change, negative = cytotoxicity” value is inactive: -19.4%.

`Clc1ccccc1CSc1nc(NCCc2ccccc2)c2ccccc2n1`: the “activity change, negative = cytotoxicity” value is inactive: -21.9%.

`N#Cc1c(C(F)(F)F)cc(-c2cccs2)nc1SCc1ccccc1F`: the “activity change, negative = cytotoxicity” value was inactive: 4.99%.

On to `CCOC(=O)C1CCN(c2ncnc3c2c(-c2ccccc2)cn3-c2ccc(Cl)cc2)CC1`, for which the “activity change, negative = cytotoxicity” value was inactive: 16.1%.

For the compound `CCOC(=O)c1c(C)[nH]c(C)c1S(=O)(=O)NCC(=O)NCc1ccccc1C`, the “activity change, negative = cytotoxicity” value was inactive: 0.993%.

Take `CCC(=O)N1c2ccccc2CC1C(=O)N1CCN(c2ccccc2F)CC1` (stereo not drawn): the “activity change, negative = cytotoxicity” value is inactive: 3.77%.

As to `Cc1ccc(NC(=O)Cn2c(=O)n(CCCCC(=O)NCc3ccc4c(c3)OCO4)c(=O)c3ccccc32)cc1`, the “activity change, negative = cytotoxicity” value was inactive: 22.6%.

For `CCN(Cc1ccccc1)C(=O)Cn1ncc2c(=O)oc3ccc(C)cc3c21`, the “activity change, negative = cytotoxicity” value is inactive: -1.23%.

As to `Cc1cccc(N2CCN(C(=O)c3ccc4c(c3)N(Cc3cccc(Cl)c3)C(=O)c3ccccc3S4(=O)=O)CC2)c1C`, the “activity change, negative = cytotoxicity” value is inactive: -5.59%.

Consider `CCOc1ccc(NC(=O)CCc2nnc3n(C)c(=O)c4sccc4n23)cc1`, for which the “activity change, negative = cytotoxicity” value was inactive: 17.5%.

On to `O=C(CSc1ncc2c(n1)-c1ccccc1N(Cc1ccc(Cl)cc1)S2(=O)=O)c1ccccc1`, for which the “activity change, negative = cytotoxicity” value is inactive: 3.92%.

With `Cc1cccc(C(=O)NNc2ncnc3c2cnn3-c2ccc(C)c(Cl)c2)c1`, the “activity change, negative = cytotoxicity” value is inactive: 10.5%.

For the compound `CC(CNC(=O)CCCn1c(=O)c2cccn2c2ccc(F)cc21)c1ccccc1` (stereo not drawn), the “activity change, negative = cytotoxicity” value was inactive: -14.1%.

As for `Cc1ccc(-c2nc(CS(=O)CC(=O)NCCc3ccc(Cl)cc3)c(C)o2)cc1` (stereo not drawn), the “activity change, negative = cytotoxicity” value is inactive: 7.55%.

Turning to `COc1cc(NC(=O)C2Cc3ccccc3N2C(=O)c2ccccc2)cc(OC)c1` (stereo not drawn), the “activity change, negative = cytotoxicity” value was inactive: -16.8%.

`COc1ccc(N2CCN(c3ncnc4c3nnn4C)CC2)cc1`: the “activity change, negative = cytotoxicity” value was inactive: -18.8%.

In the case of `COC(=O)c1cc2sccc2n1CC(=O)Nc1cc(Cl)ccc1OC`, the “activity change, negative = cytotoxicity” value was inactive: -25.1%.

As for `CCOc1ccc(-n2nc(CO)c(C(=O)NCC(C)O)n2)cc1` (stereo not drawn), the “activity change, negative = cytotoxicity” value is inactive: -4.69%.

As for `COc1ccc(OCCn2nnc3sc4c(c3c2=O)CCCC4)cc1`, the “activity change, negative = cytotoxicity” value is inactive: -7.4%.

Consider `COc1ccc2c(CNCCc3cccs3)c(C(=O)O)n(Cc3cccc(F)c3)c2c1`, for which the “activity change, negative = cytotoxicity” value is inactive: -6.97%.

As for `COc1cc(OC)c(NC(=O)C2CCN(S(=O)(=O)c3ccc4c(c3)oc(=O)n4C)CC2)cc1Cl`, the “activity change, negative = cytotoxicity” value was inactive: 12%.

In the case of `Cc1ccc(CNC(=O)CN2CCN(Cc3ccc(F)cc3Cl)C2=O)cc1`, the “activity change, negative = cytotoxicity” value was inactive: 16.7%.

As to `CCc1ccc(S(=O)(=O)c2cn(CC)c3cc(N4CCCCC4)c(F)cc3c2=O)cc1`, the “activity change, negative = cytotoxicity” value is inactive: 3.76%.

On to `COc1ccc2nc(NC(=O)c3cc(=O)c4cc(C)cc(C)c4o3)sc2c1`, for which the “activity change, negative = cytotoxicity” value is inactive: 5.94%.

In the case of `COc1ccc(OC)c(NC(=O)CCNS(=O)(=O)c2ccc3c(c2)oc(=O)n3C)c1`, the “activity change, negative = cytotoxicity” value is inactive: 6.61%.

In the case of `Nc1c(C(=O)NCc2ccc(Cl)cc2)sc2nc(-c3ccc(F)cc3)ccc12`, the “activity change, negative = cytotoxicity” value was inactive: 2.35%.

Consider `CCc1ccc(Nc2sc(C(=O)c3ccc(F)cc3)c(N)c2S(=O)(=O)c2ccccc2)cc1`, for which the “activity change, negative = cytotoxicity” value is inactive: -7.93%.

In the case of `Cc1ccc(-n2ncc3c(NC4CCCCC4)ncnc32)cc1Cl`, the “activity change, negative = cytotoxicity” value is inactive: -25.6%.

In the case of `COc1ccc(CNC(=O)CCCn2nc(C)c3c(C)n(-c4ccc(C)cc4)nc3c2=O)cc1OC`, the “activity change, negative = cytotoxicity” value was inactive: -7.43%.

With `CCOc1cc(CNC(=O)c2ccc3c(c2)N(C)C(=O)C2CCCCN32)ccc1OC` (stereo not drawn), the “activity change, negative = cytotoxicity” value was inactive: 3.71%.

On to `O=C(CNC(=O)c1ccc(F)cc1)OCc1cc(=O)n2nc(C3CCCCC3)sc2n1`, for which the “activity change, negative = cytotoxicity” value was inactive: 12.4%.

Regarding `COc1ccc(OC)c(NC(=O)CN2CCCN(Cc3ccccc3Cl)S2(=O)=O)c1`, the “activity change, negative = cytotoxicity” value was inactive: -3.94%.

With `O=C(CN1C(=O)COc2ccc(S(=O)(=O)N3CCCCCC3)cc21)N1CCN(c2ccccc2F)CC1`, the “activity change, negative = cytotoxicity” value is inactive: 22.2%.

In the case of `CCOc1ccc(CNC(=O)CCS(=O)(=O)c2cc3c4c(c2)CCN4C(=O)CC3)cc1OC`, the “activity change, negative = cytotoxicity” value was inactive: -22.4%.

Consider `O=C(c1ccc2c(Cl)c3c(nc2c1)CCCC3)N1CCN(c2cccc(C(F)(F)F)c2)CC1`, for which the “activity change, negative = cytotoxicity” value is inactive: 2.08%.

In the case of `CCN(c1ccccc1)c1nnc(NC(=O)Nc2ccc(Br)c(C)c2)s1`, the “activity change, negative = cytotoxicity” value was inactive: 0.597%.

Consider `O=C(CSc1nccn1Cc1ccco1)Nc1cc(C(F)(F)F)ccc1Cl`, for which the “activity change, negative = cytotoxicity” value is inactive: -10.6%.

Take `CCN1CCN(C(c2ccccc2Cl)c2c(O)cc(C)n(Cc3ccco3)c2=O)CC1` (stereo not drawn): the “activity change, negative = cytotoxicity” value is inactive: -1.4%.

As to `Cn1c(=O)c2c(ncn2Cc2ccc(Cl)cc2)n(C)c1=O`, the “activity change, negative = cytotoxicity” value was inactive: -9.53%.

On to `O=C(Cn1c(=O)n2nc(-c3cccc(F)c3)nc2c2ccccc21)N1CCN(c2ccc(F)cc2)CC1`, for which the “activity change, negative = cytotoxicity” value was inactive: -2.1%.
